± gives the standard deviation of the averaged measurements. The list shows a part of the results.
Test system: PfAP2-I AP2 domain 3 (GST-tagged)
Assay: gcPBM binding intensity (ln(normalized median fluorescence intensity)); higher = stronger DNA binding
Method in brief: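 The binding buffer was 1× PBS containing 1% milk, 0.2 mg/ml BSA, 0.5% salmon testes DNA and 0.03% Triton X-100. In it, GST-tagged P. falciparum DNA-binding domains expressed in E. coli were applied for 1 h to an Agilent 4 × 180k array of primer-extended double-stranded 36-bp intergenic genomic probes plus negative controls. Binding intensity, read with Alexa488 anti-GST antibody and a 488 nm scan, is the highest Masliner-normalised natural-log median intensity across replicate spots of either probe orientation.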

Row | Sequence | gcPBM binding intensity (ln)
1 | TCATTTATTTTTCTTTGTACACAAAAGTTTTTATGT [XGTACX_site690] | 7.98 ± 0.54
2 | TTCAAAAAATATATCTGTACAAATTATGTAGATGAA [XGTACX_site5522] | 7.72 ± 0.47
3 | TTTTTTTTTTTTTTTTTTTTACGATATATTTTAAAA [XGTACX_negctrl_site401] | 8.11 ± 0.69
4 | TTTTTACTTATTTATTATGTACAATTTCTTCTTTCT [CACACA_negctrl_site264] | 7.63 ± 0.76
5 | TAGATCATAACAATTGCACACATTTGCATTTATATT [CACACA_site1562] | 8.88 ± 0.52
6 | AATGTACGCATATACACACACATAAATAGATACGTA [CACACA_site3406] | 8.01 ± 0.23
7 | AATAGTTAAATACATACATGCATTCATATAATATAT [TGCATGCA_site433] | 7.91 ± 0.54
8 | TAATTAAGAATATATAGTACATAGTTGAAAAACTTT [XGTACX_site6359] | 7.71 ± 0.54
9 | AAGATAAAAATATGCACACATATATATATATATATA [CACACA_site404] | 9.51 ± 0.18
10 | AACGAAAACACTACGTGTACCAAACGTCCTACCAAC [XGTACX_site257] | 7.66 ± 0.7
11 | CCTTTTTATTTTTGTAGTACTACATATACATATCTG [XGTACX_site7791] | 8.45 ± 0.52
12 | AAAAAAAAAAAAAATAAATAAATAAATAAATATATA [GTGCAC_negctrl_site382] | 7.64 ± 0.31
13 | GGTGTTTTTCACAGATGTACACAAATAAAAAAGAAA [XGTACX_site4454] | 8.39 ± 0.47
14 | TATATATAAAAAAAAAGTACATATAATATAATATTT [XGTACX_site7902] | 7.73 ± 0.34
15 | AAATGGACAGTATAAAAATGGAGAATATAAAAATTT [CACACA_negctrl_site889] | 7.78 ± 0.83
16 | TATTCAAAGAAAAACTGTACGTGTAGCAAACGTCAT [XGTACX_site7713] | 7.96 ± 0.43
17 | ATATTAAAAAAATATAAACACACAAAAAAAAAATAT [CACACA_site8283] | 7.89 ± 0.56
18 | GACCCCATATACATATGTACATACATAATATATATA [XGTACX_site1817] | 8.45 ± 0.45
19 | TTTTTATAACAGCTTAGTACATATAAGAATTCTTGC [XGTACX_site5890] | 7.74 ± 0.44
20 | TTTGTTGGTATGGTTACACACATTTAGGAAATAAAA [CACACA_site1411] | 7.79 ± 0.61
21 | TCTTATAAATTAAATATAAAAAAAAAAAAAAAAAAA [XGTACX_negctrl_site77] | 7.94 ± 0.61
22 | AGTATTTTGTTTATCACACATATTGGAATTTTCAAT [CACACA_site4686] | 7.92 ± 0.66
23 | AAAATTATACACACACGTACATATAAATAGAAATAT [XGTACX_site1753] | 8.15 ± 0.26

Row | Sequence | gcPBM binding intensity (ln)
24 | AAAATAATTCAATGTAGTACAATACAAATTGAGAGA [XGTACX_site5991] | 7.78 ± 0.38
25 | TTAATTTCGAATTATTGTACATTAATATATCTACAG [XGTACX_site3314] | 7.58 ± 0.46
26 | AAAACAAATAGACACGCACACAAAAAAAAAAAAAAA [CACACA_site801] | 8.18 ± 0.49
27 | GAATAAAAAAAAAAAAAAATTTATTTTATAATAAAA [CACACA_negctrl_site1514] | 7.24 ± 0.49
28 | ATATATATATATATATGTACATAAATATAAATTTAA [XGTACX_site8715] | 9.5 ± 0.67
29 | ATGCAATAATAATGGAGTACATATTAATATTGATCA [XGTACX_site2312] | 7.97 ± 0.45
30 | AAAAAATATATTAAGGCACACACATACATATATATA [CACACA_site9239] | 9.675 ± 0.035
31 | CCTTTTGGATGAAAGTGTACAGGTGAGAAAAATTCC [XGTACX_site3358] | 8.07 ± 0.54
32 | AATGTAAAGAACAAAACATGCAACTAGTTTACTTTT [TGCATGCA_site841] | 7.58 ± 0.71
33 | TAATTCTTTATTTTTCGTACGTAAAACAAAAAATAT [XGTACX_site862] | 7.85 ± 0.17
34 | TAAGTATATAAAATTACACACTATTTTTTTTCAAGT [CACACA_site1792] | 7.45 ± 0.5
35 | TAGAAAAAAGATAGCACACACGGCCCAATATATATA [CACACA_site5354] | 8.37 ± 0.73
36 | TCGAATATCTTATAGGTGCATCATAAATACATATGT | 10.3 ± 0.31
37 | CGCAAAACAATGATACGTACATATATATATATATAT [XGTACX_site5883] | 9.46 ± 0.56
38 | ATATTCTCTTAAATATGTACGTATGTATATATATAT [XGTACX_site5885] | 9.145 ± 0.049
39 | ATTCTTAAATGTGGTTGTACATATTATCACCTTTAA [XGTACX_site8188] | 7.86 ± 0.46
40 | TTTTTAATTTTATATACACACATAAAAGATATGAAG [CACACA_site7470] | 7.67 ± 0.47
41 | AAGAAAATGTAGAATTAGAAATAAATGAAGAAATGA [TGCATGCA_negctrl_site548] | 7.88 ± 0.62
42 | AGTAGATTTTTATTAGTGCATTTTATACTACAAAAA | 9.71 ± 0.24
43 | TATATGTTTAATTTCACACACAAATATACATTTTAA [CACACA_site4171] | 7.62 ± 0.46
44 | CATTAGCATTTTATTACACACAATAAATTAGAAGTA [CACACA_site7837] | 7.74 ± 0.46
45 | ATATTTATTTATATCATACACACTAATATGTATATT [CACACA_site7576] | 7.86 ± 0.45
46 | TTTTAAAACAATGAGATTCCTTTCTTTTTTTCTTTT [CACACA_negctrl_site1320] | 7.05 ± 0.69

Row | Sequence | gcPBM binding intensity (ln)
47 | CTTAATGATAAATACATACACACAAAAAATAATATA [CACACA_site2577] | 7.71 ± 0.59
48 | TATCCCTTAGAATACACACCCATATGAGGGTGAACT [CACACA_site5610] | 7.76 ± 0.26
49 | TTTTTGTTAACAATGGGTACAAAAAAAAGGAAAATA [XGTACX_site7466] | 8.08 ± 0.45
50 | CCCAAAAAATATCATAGTACTCAACATGACTACTAT [XGTACX_site7838] | 7.7 ± 0.55
51 | AATTTTGTATAGGTATCACACATGAAATATATTATT [CACACA_site5526] | 7.71 ± 0.61
52 | AAATAAAATAATAAAACATGCAAAAATAATGATTTA [TGCATGCA_site415] | 7.71 ± 0.76
53 | ATAAAGATTAACAAAGTGCATTTATATATATAATCT [GTGCAC_site9407] | 9.865 ± 0.092
54 | TATAAATAAATAGATACACACATATTTATAAATACA [CACACA_site6219] | 7.51 ± 0.4
55 | ATAAAAGATATGTATATGTATATGTATATATATATA [TGCATGCA_negctrl_site214] | 9.21 ± 0.22
56 | GCTTAAGGTAAATATAAAATATAGTGTATACTTTAG [XGTACX_negctrl_site585] | 7.42 ± 0.6
57 | TTACGCTGCTATATAGTGCACATAATATATGACCTG | 11 ± 0.24
58 | TGAATAATCAATAGTACACACATATAAATATAAATA [CACACA_site7345] | 7.88 ± 0.31
59 | TTTTATTTATTATTATGTACACACTATATTAAAACA [XGTACX_site1265] | 8.17 ± 0.4
60 | ACTTAGGAAATAAAACGTACATTAAATATATACATA [XGTACX_site2990] | 7.84 ± 0.35
61 | GTATGTATGTATGTATGTACTTATTAATCAGTAAAA [XGTACX_site3844] | 8.93 ± 0.35
62 | TTAAGGCATCAACATAGTACAATTTTTCTATAATAA [XGTACX_site1114] | 7.57 ± 0.45
63 | ATTTAATACAAATACACACACAAATAAATACAGATA [CACACA_site5956] | 7.93 ± 0.55
64 | TTTATAATTCTTACAACACACAATGTACTTTTATAT [CACACA_site8340] | 8.04 ± 0.28
65 | TTTATTTCCTTTTTGTGTACATATATATGTAATTCA [XGTACX_site1718] | 8.05 ± 0.57
66 | ATTCTACGCACGCGCACACACAACAAAAAAAAAAAA [CACACA_site3538] | 9.56 ± 0.31
67 | GTGATGGTACAATATACACACTTAAAAAAAAAAAAT [CACACA_site5360] | 7.82 ± 0.28
68 | TATATACATATATATTGTACTTATTTTTATAATGTC [XGTACX_site3453] | 7.83 ± 0.22
69 | CATGTGTGATAATGATGTACTATATTAAGCTAGTCC [XGTACX_site2690] | 7.63 ± 0.54

Row | Sequence | gcPBM binding intensity (ln)
70 | AAGTATGTATCACAAAGTACTTAAGCATATATTTAA [XGTACX_site4121] | 7.58 ± 0.47
71 | TTGTAATAAATAAAAGTGCATATATGGTTCCACTAT [GTGCAC_site9944] | 9.81 ± 0.11
72 | TTATTTTTTTATTCATGTACACAAGAACATTTCATT [XGTACX_site5744] | 7.82 ± 0.71
73 | TACAAATATGGACACACACACATATATATATATATA [CACACA_site4488] | 9.49 ± 0.43
74 | TAAATATATTGGAGAGGTACACTTTTGGCATTGAAA [XGTACX_site8447] | 7.87 ± 0.61
75 | GTATAATAGAAACACACACACACACCCAAAAAAAAA [CACACA_site2010] | 8.35 ± 0.11
76 | GTATATATAATGTGCCGTACATTTATATATTCAATA [XGTACX_site1051] | 8.16 ± 0.52
77 | TTAAATGTAATATAATGTACGGATATTTACCATAAA [XGTACX_site1472] | 7.82 ± 0.48
78 | CAATATATTATATGGGTGCAAACCACATATAAATAA | 10.1 ± 0.33
79 | TTAGGTATATATAAACGTACTCACAATATCATATAA [XGTACX_site8743] | 7.74 ± 0.48
80 | AAATGTAATAATAAATGTACAAACATATATATGTAT [XGTACX_site8718] | 7.78 ± 0.52
81 | TATATATACTTTTATGTACACACCTATAATATGGGT [CACACA_site1759] | 7.96 ± 0.37
82 | AAGTTTAAAATCTTTGCACACATATAAATAAATATA [CACACA_site2554] | 8.94 ± 0.12
83 | ATAAATAAATAAAAAAGTACATTTCCACTTTTAACA [XGTACX_site81] | 7.74 ± 0.34
84 | TGCACCCACCAACACACACACAACTAAAAAATAATG [CACACA_site2566] | 8.16 ± 0.25
85 | ACATATTAAATATGAGTGCAATATATATATATATAA | 10.9 ± 0.43
86 | TATTATATCTTTTCAAGTACACATAACATACTTATT [XGTACX_site1081] | 7.95 ± 0.59
87 | TATAATTATATAAATTGTACATAAAAAGTTTTTACT [XGTACX_site3621] | 7.71 ± 0.38
88 | GTAAAATTTACATAGAGTACTTATATTTTTTTCTGC [XGTACX_site3414] | 7.58 ± 0.59
89 | CACAAATATACAAATACACACAAATATACAAATACA [CACACA_site2385] | 7.72 ± 0.45
90 | CAGTTTACTAATATTGCACACGAATATGAAAAAGAG [CACACA_site8941] | 9.895 ± 0.035

— the supplement of paper PMC11417369
